Assay results reported in PubChem BioAssay AID686978 (National Center for Advancing Translational Sciences (NCATS), 2013).
In all, about 420,000 compounds went through this assay and about 64,000 (15%) were called active. Inconclusive results, whose numbers are uncertain, are shown with a selection of clear calls. The call rests on the fitted dose curve; in most records, active means well fitted inhibition curve with a large enough effect; inconclusive means small, poorly fitted or top-dose-only effect; inactive means flat fitted curve, though single readings scatter. No potency is given beside an inconclusive call; the fits are too rough.
On the % scale 0 is the no-effect control and ±100 the full control effect; potency means the concentration at half of the fitted maximal effect; tags describe the fitted curve by direction and shape.

Assay: qHTS for Inhibitors of human tyrosyl-DNA phosphodiesterase 1 (TDP1): qHTS in cells in absence of CPT; further: nearly all actives have a fitted effect of over 55% in size
Conditions: DT40 Tdp1-/- hTDP1 cells, no CPT, ATP luminescence, 48 h; activity change, negative = growth inhibition: at 46.2 µM (top of the series) unless noted
Method in brief: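 DT40 Tdp1-/-;hTDP1 cells, no CPT (DMSO vehicle only), 400 cells/well; compounds pin-transferred; ≥48 hr, 37 °C; CellTiter-Glo 30 min RT dark, luminescence read.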
With Cc1cc(Cl)c(S(=O)(=O)NC2CCCC2)cc1OCC(=O)NC1CCCCC1 the Potency was active: 23.1 µM. With Cc1ccc(C(=O)Cn2c(=N)n(CCN3CCOCC3)c3ccccc32)cc1 the Potency was inconclusive [inhibitor, single point]. With Cc1ccc(C(=O)OCC(=O)NCc2ccc(Cl)cc2Cl)o1 the “activity change, negative = growth inhibition” value was inactive: -20.7%. In the case of c1ccc(-c2nc(NCc3ccco3)c3ccccc3n2)cc1, the Potency is reported as active: 23.1 µM. In the case of Cc1ccc(NS(=O)(=O)c2ccc3c(c2)oc(=O)n3C)c(C)c1, the Potency is reported as inconclusive [inhibitor, partial curve]. With COc1ccc([N+](=O)[O-])cc1NC(=O)CSc1ccc2ccccc2c1 the Potency was inconclusive [inhibitor, single point]. With CC(C)c1nn2c(=O)cc(COC(=O)c3cccs3)nc2s1 the “activity change, negative = growth inhibition” value was inactive: 4.01%. For O=C(Nc1ccc(-c2nc3ccccc3o2)cc1)c1ccc(N2C(=O)C3C4C=CC(C4)C3C2=O)cc1 (centres undefined), the Potency was inconclusive [inhibitor, partial curve]. For CCSc1nsc(NC(=O)Nc2cccc(OC)c2)n1, the Potency was inconclusive [inhibitor, single point]. For O=C(NCc1ccco1)Nc1ccc([N+](=O)[O-])cc1, the Potency was inconclusive [inhibitor, single point]. For CC1(Cc2cccc(C(F)(F)F)c2)C(=O)Nc2ccc(-c3ccc(F)c(Cl)c3)cc21 (centres undefined), the Potency was active: 23.1 µM. With COc1ccc(C2CC(c3ccc(Cl)cc3)Nc3nc(NC(=O)c4ccco4)nn32)cc1 (centres undefined) the Potency was inconclusive [inhibitor, single point]. In the case of Cc1nc(-c2ccc(NC(=O)c3cccs3)cc2)cs1, the Potency is reported as inconclusive [inhibitor, single point]. For O=C(O)c1cc(-c2ccc(Cl)c(Cl)c2)n(-c2ccc(F)cc2)n1, the “activity change, negative = growth inhibition” value was inactive: -3.52%. In the case of CN(C)c1ccc(Nc2nc(N)c3ccccc3n2)cc1, the Potency is reported as active: 13 µM. For O=C(NCCCN1CCCCC1)C1CCN(c2ncnc3c2nc2n3CCCCC2)CC1, the Potency was inconclusive [inhibitor, single point]. In the case of CC1CC(C)CN(S(=O)(=O)c2ccc3c(c2)CC(=O)N3)C1 (centres undefined), the “activity change, negative = growth inhibition” value is reported as inactive: 6.31%. In the case of C/C(CC(=O)NCc1ccco1)=N\NC(=O)Cc1ccc(-c2ccccc2)cc1, the “activity change, negative = growth inhibition” value is reported as inactive: -3.33%. With CN(C)c1cccc(C(=O)N2CCCC(CCC(=O)NCc3ccccc3F)C2)c1 (centres undefined) the Potency was inconclusive [inhibitor, single point]. With COc1ccc(N(CC(=O)NCCC2=CCCCC2)S(=O)(=O)c2ccccc2)cc1OC the Potency was inconclusive [inhibitor, single point]. In the case of Cc1c(CCOC(=O)c2ccccc2)sc[n+]1Cc1ccccc1, the Potency is reported as active: 23.1 µM. In the case of Cc1ccc(OCC(=O)Nc2ccc3c(c2)nc(CCN2CCC(C)CC2)n3C)cc1, the Potency is reported as inconclusive [inhibitor, single point]. In the case of CCNc1nc(OC)nc(N2CCC(Cc3ccccc3)CC2)n1, the Potency is reported as inconclusive [inhibitor, single point]. In the case of CCOC(=O)C(=COC(=O)c1ccccc1)NC(=O)Cc1ccccc1, the “activity change, negative = growth inhibition” value is reported as inactive: 4.12%. With O=C(CSc1ccc(-c2cccnc2)nn1)Nc1ccccc1C(F)(F)F the “activity change, negative = growth inhibition” value was inactive: -2.13%. For O=C(Nc1cccn(Cc2ccccc2)c1=O)NC1CCCCC1, the “activity change, negative = growth inhibition” value was inactive: -21%. In the case of COc1ccc(Cl)cc1NC(=O)N1CCN(Cc2cc(=O)n3nc(-c4ccccc4)sc3n2)CC1, the “activity change, negative = growth inhibition” value is reported as inactive: -22.8%. With CCCC1=NN2C(=N)/C(=C\c3cc(C)n(-c4cccc(C)c4)c3C)C(=O)N=C2S1 the “activity change, negative = growth inhibition” value was inactive: 2.11%. In the case of CCOC(=O)c1nn(-c2ccc(F)cc2)c(=O)cc1OCC(=O)Nc1cccc(C)c1, the Potency is reported as inconclusive [inhibitor, partial curve]. In the case of CCOC(=O)c1cc(C#N)c(N)nc1C, the “activity change, negative = growth inhibition” value is reported as inactive: -15.9%. In the case of COc1ccccc1NC(=O)CCc1c(C)nc2c(-c3ccc(F)cc3)c(C)nn2c1C, the Potency is reported as inconclusive [inhibitor, single point]. With CC1=C(C(=O)OCc2ccc3c(c2)OCO3)C(c2ccc(F)cc2)NC(=O)N1 (centres undefined) the Potency was active: 4.11 µM. In the case of CCCCCCSc1ccc(-c2nc3ccc(C)cn3c2NC2CCCCC2)cc1, the Potency is reported as active: 18.4 µM. For COc1ccc2c(-c3ccccc3)cc(N3CCOCC3)nc2c1, the Potency was inconclusive [inhibitor, partial curve]. With CCN(CC(=O)Nc1ccccc1C(F)(F)F)C(=O)c1cc2c(s1)CCCCC2 the Potency was active: 23.1 µM. For O=C(COc1coc(CN2CCc3ccccc3C2)cc1=O)Nc1ccc(F)cc1F, the Potency was inconclusive [inhibitor, partial curve]. In the case of COc1cccc(Cl)c1NC(=O)N1CCN(c2cc(C)nc3ccccc23)CC1, the Potency is reported as inconclusive [inhibitor, single point]. For COc1cc(OC)c(C(=O)OC(C)C(=O)NCc2ccc3c(c2)OCO3)cc1OC (centres undefined), the Potency was inconclusive [inhibitor, single point]. For Cn1c(=O)c(=O)n(C)c2cc(S(=O)(=O)N3CCOCC3)ccc21, the “activity change, negative = growth inhibition” value was inactive: 3.83%. With NC1=NC(c2cccc(Cl)c2)n2c(nc3ccccc32)N1 (centres undefined) the “activity change, negative = growth inhibition” value was inactive: -21.4%. In the case of Cc1ccc2nc(-c3ccncc3)cc(-c3ccccc3)c2c1, the Potency is reported as inconclusive [inhibitor, single point]. With CCCS(=O)(=O)Nc1cccc(-c2cn3ccc(C)cc3n2)c1 the Potency was active: 16.4 µM. In the case of Cc1ccccc1CN1CCC(n2nccc2NC(=O)CCOc2ccccc2)CC1, the “activity change, negative = growth inhibition” value is reported as inactive: -20.4%. For COc1cccc(C(=O)OCC(=O)c2c[nH]c3ccccc23)c1O, the “activity change, negative = growth inhibition” value was inactive: -7.69%. In the case of O=C1NC(c2ccccc2Cl)=N/C1=C/c1ccco1, the activity change, negative = growth inhibition is reported as inconclusive: -34.3% [inhibitor]. With COc1ccc(C(=O)OC2CCN(C)CC2)cc1 the “activity change, negative = growth inhibition” value was inactive: 6.97%. For Cc1ccc(NC(=O)c2cccc(F)c2)cc1S(=O)(=O)N1CCCCCC1, the Potency was inconclusive [inhibitor, single point]. For COC(=O)c1ccc(CNC(=O)CN2C(=O)NC(Cc3ccccc3)(c3ccccc3)C2=O)cc1 (centres undefined), the Potency was inconclusive [inhibitor, single point]. In the case of COCCOC(=O)C1=C(C)NC(C)=C(C(=O)OCCOC)C1/C=C/c1ccccc1OC, the Potency is reported as inconclusive [inhibitor, single point]. In the case of Cc1ccc(NC(=O)COC(=O)Cc2cccs2)c(Br)c1, the “activity change, negative = growth inhibition” value is reported as inactive: 4.46%. For CCOc1ccccc1N1CCN(C(=O)c2cn(CC3CCCCC3)nn2)CC1, the Potency was inconclusive [inhibitor, single point]. In the case of O=C(/C=C/[C@H]1O[C@@H](n2ccc(=O)[nH]c2=O)[C@H](O)[C@@H]1O)NCc1ccccn1, the “activity change, negative = growth inhibition” value is reported as inactive: 2.77%. For COc1ccc(C(=O)N2N=C(c3cccc(NS(C)(=O)=O)c3)CC2c2cccs2)cc1 (centres undefined), the Potency was inconclusive [inhibitor, single point]. With CNC(=S)Nc1cc(Cl)ccc1Oc1ccccc1 the Potency was inconclusive [inhibitor, partial curve]. With COC(=O)COc1nc(C)c2c(c1C#N)CC(C)(C)OC2 the Potency was inconclusive [inhibitor, full curve, poor fit]. With Cc1ccccc1C(=O)Nc1nnc(S(=O)(=O)N2CCCCC2)s1 the “activity change, negative = growth inhibition” value was inactive: 2.82%. In the case of CC(=O)c1cnn(-c2cc(Oc3ccccc3C)ncn2)c1C, the Potency is reported as inconclusive [inhibitor, single point]. With Cc1ccc(NC(=O)c2oc3ccc4c(c3c2C)C(=O)CC(C)(C)O4)c(C)c1 the Potency was inconclusive [inhibitor, partial curve]. With Cc1cc(Br)cn2c(Cc3ccccc3)c(-c3ccc(C#N)cc3)nc12 the Potency was inconclusive [inhibitor, single point]. In the case of O=C(CCN1C(=O)/C(=C\c2cccs2)SC1=S)Nc1ccccn1, the Potency is reported as inconclusive [inhibitor, single point]. In the case of CCCN1CCc2c(sc(NC(=O)c3ccc(S(=O)(=O)N(C)c4ccccc4)cc3)c2C(N)=O)C1, the Potency is reported as inconclusive [inhibitor, partial curve]. For COc1ccc(-n2c(-c3ccccc3)nnc2-c2ccc(Cl)cc2)cc1, the activity change, negative = growth inhibition was inconclusive: -11.6% [inhibitor]. For CCc1cc(C(=O)OCC(=O)N2CCC(c3ccccc3)=N2)sc1C, the “activity change, negative = growth inhibition” value was inactive: -10.8%. With CCC(C)C(=O)Nc1nc(C)c(-c2csc(Nc3ccc(Cl)cc3)n2)s1 (centres undefined) the Potency was active: 9.2 µM. With COc1nc(C)ccc1-c1noc(-c2cccnc2)n1 the “activity change, negative = growth inhibition” value was inactive: -4.76%. With CCOc1c(Br)cc(C2CC(=O)Nc3cc4c(cc32)OCO4)cc1OC (centres undefined) the Potency was active: 4.61 µM. In the case of N/C(=N\OC(=O)C1CCCCC1)c1ccccn1, the “activity change, negative = growth inhibition” value is reported as inactive: -19.9%. In the case of COc1ccc(C2C=C(c3ccc(Cl)cc3)Nc3nc(-c4ccc(Cl)cc4)nn32)cc1 (centres undefined), the Potency is reported as active: 4.61 µM. With O=C(CSc1n[nH]c(-c2ccc(F)cc2)n1)NCc1ccccc1Cl the Potency was inconclusive [inhibitor, single point]. In the case of CCOC(=O)c1ccc(NC(=O)CCS(=O)(=O)c2cccc3nonc23)cc1, the Potency is reported as inconclusive [inhibitor, single point]. For COc1cc2c(cc1OC)C(c1cccs1)N(C(=O)c1cccc(S(=O)(=O)N(C)C)c1)CC2 (centres undefined), the Potency was inconclusive [inhibitor, single point]. In the case of Cc1ccc(C(OCC(O)CNCc2ccc(F)cc2)c2ccccc2)cc1 (centres undefined), the Potency is reported as active: 16.4 µM. For CCC(C(=O)NCCCc1ccccc1)n1nc(C)c2c(C)n(-c3ccccc3)nc2c1=O (centres undefined), the “activity change, negative = growth inhibition” value was inactive: -27.7%. With CCN1CCOC(CC(=O)Nc2ccc([N+](=O)[O-])cc2)C1=O (centres undefined) the Potency was inconclusive [inhibitor, single point].
